# Laboratory results published in PubChem BioAssay AID485367 (National Center for Advancing Translational Sciences (NCATS), 2010).
# Screen size: about 330,000 compounds; about 560 (0.17%) were called active. Inconclusive results, whose numbers are uncertain, are shown with a selection of clear calls. Calls come from the whole dose curve; as a rule, active = well fitted inhibition curve with a large enough effect; inconclusive = small, poorly fitted or top-dose-only effect, or effect the other way; inactive = flat fitted curve, though single readings scatter. Potencies of inconclusive entries are left out as doubtful fits.
# Target: ATP-dependent 6-phosphofructokinase (Trypanosoma brucei brucei) (UniProt O15648)
# Assay: qHTS Assay to Find Inhibitors of T. brucei phosphofructokinase; note: nearly all actives have a fitted effect of over 60% in size
# Details: T. brucei PFK, ADP-Glo luminescence; series mostly up to 57.5 µM
# In short: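 Activity is normalized to no-enzyme wells (full inhibition) and 1.25 nM enzyme wells (no inhibition). Reaction: 0.5 mM F6P, 0.1 mM ATP, 45 min RT, ADP-Glo luminescence; concentration-response curves fitted and classed by quality.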
# Potency is the fitted concentration of half-maximal effect; tags give direction and shape of the fitted curve.
# Sequence of UniProt O15648 (O15648 whole entry, looked up): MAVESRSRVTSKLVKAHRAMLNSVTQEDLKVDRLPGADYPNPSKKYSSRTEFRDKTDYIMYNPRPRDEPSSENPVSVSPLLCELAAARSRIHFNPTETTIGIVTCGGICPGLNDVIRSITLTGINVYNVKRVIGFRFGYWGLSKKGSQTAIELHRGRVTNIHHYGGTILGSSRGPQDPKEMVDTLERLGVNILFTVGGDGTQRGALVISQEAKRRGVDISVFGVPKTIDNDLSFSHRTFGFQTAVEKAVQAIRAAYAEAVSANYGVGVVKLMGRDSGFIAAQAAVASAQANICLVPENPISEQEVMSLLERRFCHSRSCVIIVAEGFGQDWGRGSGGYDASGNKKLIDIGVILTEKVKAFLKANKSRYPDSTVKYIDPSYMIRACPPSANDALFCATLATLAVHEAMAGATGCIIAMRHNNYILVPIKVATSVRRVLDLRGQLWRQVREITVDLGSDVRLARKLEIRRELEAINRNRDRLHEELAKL
row,SMILES,Potency
1,CC(=O)C1=C(O)C(=O)N(c2ccc(Br)cc2)C1c1cccc([N+](=O)[O-])c1 (stereo unspecified),inactive
2,CCCc1ccc(S(=O)(=O)N2CCN(C(C)C(=O)NCc3ccc(OC)cc3)CC2)cc1 (stereo unspecified),inactive
3,CN(C(=O)c1ccccc1C(=O)OCC(=O)Nc1ccc(S(N)(=O)=O)cc1)c1ccccc1,inactive
4,N#Cc1ccsc1NC(=O)COC(=O)C1=NNC(=O)CC1,"inconclusive [falling, full curve, poor fit]"
5,O=C(Nc1ccc(Cl)cc1)N1CCC(CO)(Cc2ccccc2)CC1,inactive
6,CC1=CCC(C(=O)O)C(C(=O)NC2CCCCC2)C1 (stereo unspecified),"inconclusive [falling, single point]"
7,CCOC(=O)c1nn(-c2ccc(F)cc2)c2c1CC/C2=C/c1ccccc1,inactive
8,Cc1ccc(-n2nc(C)c3c2OC(N)=C(C#N)C3c2ccco2)cc1 (stereo unspecified),"inconclusive [falling, single point]"
9,NCCN1CCN2C(=O)CN(C(=O)c3ccccc3)CC12 (stereo unspecified),inactive
10,O=C(O)c1cc(NN=Nc2cccc(S(=O)(=O)O)c2)cc([N+](=O)[O-])c1,inactive
11,O=C(O)CNC(=O)c1ccc(Oc2c(F)c(F)c(Oc3ccc(C(=O)NCC(=O)O)cc3)c(F)c2F)cc1,"inconclusive [falling, single point]"
12,Cc1cc(C=O)c(C)n1-c1cc(C(=O)O)cc(C(=O)O)c1,"inconclusive [falling, partial curve]"
13,Cc1cc(NS(=O)(=O)c2ccc(NC(=O)/C=C/c3ccc(C)o3)cc2)nc(C)n1,"inconclusive [activator, partial curve]"
14,O=C(Cn1c(NCCO)nc2ccccc21)Nc1ccc2c(c1)OCCCO2,inactive
15,S=C(Nc1cccc(Cl)c1)Nc1cccc2cnccc12,"inconclusive [falling, single point]"
16,O=C(CSc1nc2ccccc2s1)NC(=O)NCc1ccco1,"inconclusive [falling, single point]"
17,COc1cccc(CNc2ccc(F)c([N+](=O)[O-])c2)c1O,"inconclusive [falling, partial curve]"
18,NC(=O)c1cccnc1Oc1ccccc1,inactive
19,O=C(COc1ccc([N+](=O)[O-])cc1)Nc1ccncc1,"inconclusive [falling, partial curve]"
20,O=C(OCc1cc(=O)n2ccsc2n1)c1ccc(O)cc1O,inactive
21,Cc1noc(NS(=O)(=O)c2ccc(NC(=O)COc3ccc(C#N)cc3)cc2)c1C,active: 13.5 µM
22,Cc1c(N2C(=O)c3ccc4c5c(ccc(c35)C2=O)CC4)c(=O)n(-c2ccccc2)n1C,"inconclusive [falling, full curve, poor fit]"
23,O=C(NCc1ccc(Cl)cc1)c1ccc2nc[nH]c2c1,"inconclusive [falling, single point]"
24,NC(=O)c1c(-c2cccs2)csc1N,"inconclusive [activator, partial curve]"

row,SMILES,Potency
1,O=C(NNC(=O)c1cc2cc3ccccc3nc2s1)c1ccc(F)cc1,"inconclusive [falling, partial curve]"
2,Cc1ccc(Cc2cnc(NC(=O)CN3CCOCC3)s2)cc1Cl,"inconclusive [falling, partial curve]"
3,COc1ccc(C(c2c(NC(=O)c3ccccc3)sc(C)c2C)N2CCN(CCO)CC2)cc1 (stereo unspecified),inactive
4,CSc1nc(NC(C)C)nc(N2CCOCC2)n1,"inconclusive [falling, single point]"
5,COc1ccc(Cl)cc1NC(=S)NC1CCCC1,"inconclusive [falling, single point]"
6,CC(C)(C)/C(O)=C/c1nc2ccccc2[nH]c1=O,inactive
7,Nc1nnc(Cc2cccc(Br)c2)s1,"inconclusive [falling, partial curve]"
8,O=C(COC(=O)c1cccs1)Nc1ccc(F)c(F)c1,"inconclusive [falling, single point]"
9,CCOC(=O)NC(=O)/C(C#N)=C(/C)N(C)C,"inconclusive [activator, single point]"
10,CCN(CCS(=O)(=O)c1ccc(Br)cc1)Cc1nc2ccccc2c(=O)[nH]1,"inconclusive [falling, single point]"
11,O=[N+]([O-])c1nn(-c2ccc3c(c2)OCCO3)n(O)c1=NCCC1=CCCCC1,inactive
12,Cc1ccc(C)n1-c1ccc(C(=O)O)cc1,active: 10.7 µM
13,CCC(C)NC(=S)N1CCN(Cc2ccccc2)CC1 (stereo unspecified),"inconclusive [falling, single point]"
14,CCn1c(C)nc2cc(C(=O)N/N=C/c3ccccc3)ccc21,inactive
15,Cc1cc(-c2nnc(SCC(=O)Nc3nc(-c4ccc(Cl)cc4)cs3)o2)no1,"inconclusive [falling, partial curve]"
16,Cc1ccc(CN2CC(C(=O)N3CCN(c4ccccc4O)CC3)CC2=O)cc1 (stereo unspecified),inactive
17,O=C(CNC(=O)C1CCCCC1)OCC(=O)c1cccc(Cl)c1,"inconclusive [falling, single point]"
18,Cc1c(C(=O)OCC(=O)N(C)CC(=O)Nc2ccc(F)cc2)oc2ccccc12,"inconclusive [falling, partial curve]"
19,C=CC[C@@H](CC(=O)N[C@H](CO)Cc1ccccc1)C(=O)N[C@H](COC(=O)[C@@H](CC=C)Cc1ccc(F)cc1)Cc1ccccc1,"inconclusive [falling, single point]"
20,CCOC(=O)c1c(NC(=O)CCC(=O)O)sc2c1CCCCC2,"inconclusive [falling, single point]"
21,CCc1cc2c3c(c1)C(C)CC(C)(C)N3C(=O)C2=O (stereo unspecified),"inconclusive [falling, single point]"
22,CC(CNC(=O)CCC(=O)N1CCOc2ccc(Cl)cc21)c1ccccc1 (stereo unspecified),"inconclusive [falling, single point]"
23,COc1ccc(NC(=S)NCCSc2ccc(Cl)cc2)c(OC)c1,"inconclusive [falling, partial curve]"
24,C/C(=N/NC(=O)c1cc(O)c(O)c(O)c1)c1ccc([N+](=O)[O-])cc1,"inconclusive [falling, full curve]"

row,SMILES,Potency
1,O=C(/C=C/c1cccs1)Nc1scc(-c2ccccc2)c1C(=O)O,"inconclusive [falling, partial curve]"
2,CN(C)c1ccc(C2C3C(=O)NC(=O)C3ON2c2ccc(Cl)cc2)cc1 (stereo unspecified),"inconclusive [falling, single point]"
3,OCCN1CCN(C(=S)c2ccc(-c3ccccc3)cc2)CC1,"inconclusive [falling, partial curve]"
4,CCOC(=O)C1CCCc2c1[nH]c1c(C(N)=O)cccc21 (stereo unspecified),"inconclusive [activator, single point]"
5,CCN(CC)c1ccc(NC2=C(Cl)C(=O)c3ccccc3C2=O)cc1,"inconclusive [falling, partial curve]"
6,Cc1cnc(C(=O)N2CCCC(C(=O)c3ccc(C(F)(F)F)cc3)C2)cn1 (stereo unspecified),inactive
7,NC(=O)c1c(N)sc(=S)n1-c1ccccc1,"inconclusive [activator, full curve, poor fit]"
8,COc1cc(/C=C2\CCn3c2nc2cc(C(=O)O)ccc2c3=O)ccc1OC(F)F,"inconclusive [falling, single point]"
9,COc1ccc(OC)c(CCNC(=O)CSc2ccsc2[N+](=O)[O-])c1,inactive
10,O=c1cc(CSc2nnnn2-c2ccccc2)nc2scc(-c3ccccc3)n12,inactive
11,O=[N+]([O-])c1ccc(NC(=S)NCc2ccncc2)cc1,"inconclusive [falling, single point]"
12,O=C(NNc1nc2ccccc2s1)Nc1ccc(F)cc1,"inconclusive [falling, single point]"
13,COc1cccc2c(SCC(=O)N/N=C/c3ccc(O)c(O)c3)cc(C)nc12,"inconclusive [activator, single point]"
14,O=C1C2CC=C(Cl)CC2C(=O)N1CCCCCCN1C(=O)C2CC=C(Cl)CC2C1=O (stereo unspecified),"inconclusive [falling, partial curve]"
15,COc1ccc(C(=O)Nc2nnc(SCC(=O)NCc3ccco3)s2)c(OC)c1,"inconclusive [falling, single point]"
16,CCc1cc(C(=O)Nc2ccc(S(=O)(=O)NC3=NCCCCC3)cc2)sc1C,"inconclusive [falling, partial curve]"
17,c1csc(-c2nn3c(C4COc5ccccc5O4)nnc3s2)c1 (stereo unspecified),"inconclusive [falling, partial curve]"
18,Cc1cc(SCC(=O)OCC(=O)N(C)c2ccccc2)nc2ccccc12,"inconclusive [falling, single point]"
19,O=C(O)c1ccc(/C=N/NC(=O)c2ccc(CN3c4cccc5cccc(c45)S3(=O)=O)cc2)cc1,inactive
20,O=C1NC(=S)S/C1=C/c1ccc(N2CCOCC2)o1,active: 26.9 µM
21,O=C(O)CSc1c(-c2ccccc2)c2cc(Cl)ccc2[nH]c1=O,"inconclusive [falling, single point]"
22,C=C(C)C(=O)Nc1cccc(C2=NOC3(C2)C[C@@H](C(N)=O)N(C(=O)C(=C)C)C3)c1 (stereo partly specified),"inconclusive [falling, partial curve]"
23,CCc1cccc(C)c1NC(=O)CSc1nc2ccc(N3C(=O)c4ccccc4C3=O)cc2s1,inactive
